# The supplement of paper PMC8728848
# This is one part of the list.
# B1: FimD (Bordetella pertussis) (protein)
# chain: MPARVISFCGAALAVWAGLAVQPAMAVDPPVDCGRALGLHFWSSASLISDQTPDGTLIGKPVVGRSLLSKSCKVPDDIKEDLSDNHDGEPVDIVLELGSNYKIRPQSYGHPGIVVDLPFGSTEETGIAIYIDFGSSPMQKVGERQWLYPQKGEVLFDVLTINGDNAEVRYQAIKVGPLKRPRKLVLSQFPNLFTYKWVFMRGTSQERVLAQGTIDTDVATSTIDLKTCRYTSQTVSLPIIQRSALTGVGTTLGMTDFQMPFWCYGWPKVSVYMSATKTQTGVDGVALPATGQAAGMASGVGVQLINGKTQQPVKLGLQGKIALPEAQQTESATFSLPMKAQYYQTSTSTSAGKLSVTYAVTLNYD
# Tests used:
# Assay in all cases: glycan array binding signal (z-score within array); higher = stronger binding
# Details in all cases: glycan notation: IUPAC condensed, linker removed
# [1] = biological target: Gal(b1-3)GlcNAc(b1-3)Gal(b1-4)GlcNAc(b1-2)[Gal(b1-3)GlcNAc(b1-3)Gal(b1-4)GlcNAc(b1-6)]Man(a1-6)[Gal(b1-3)GlcNAc(b1-3)Gal(b1-4)GlcNAc(b1-2)Man(a1-3)]Man(b1-4)GlcNAc(b1-4)[Fuc(a1-6)]GlcNAc
# Method in brief: (§1)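 Columns mapping to the same glycan were averaged after glycan names were converted to IUPAC-condensed notation. The data come from 3228 arrays in the Consortium for Functional Glycomics database, limited to those with an available protein sequence. Binding is reported as a within-array Z-score averaged across arrays of one protein sequence and across linkers.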
# [2] = biological target: Gal(b1-3)GlcNAc(b1-3)Gal(b1-4)GlcNAc(b1-3)Gal(b1-4)GlcNAc(b1-2)[Gal(b1-3)GlcNAc(b1-3)Gal(b1-4)GlcNAc(b1-3)Gal(b1-4)GlcNAc(b1-6)]Man(a1-6)[Gal(b1-3)GlcNAc(b1-3)Gal(b1-4)GlcNAc(b1-3)Gal(b1-4)GlcNAc(b1-2)Man(a1-3)]Man(b1-4)GlcNAc(b1-4)[Fuc(a1-6)]GlcNAc
# Method in brief: as §1
# [3] = biological target: Gal(b1-3)GlcNAc(b1-3)Gal(b1-4)GlcNAc(b1-6)[Gal(b1-3)GlcNAc(b1-3)]Gal(b1-4)Glc
# Method in brief: as §1
# [4] = biological target: Gal(b1-3)GlcNAc(b1-3)Gal(b1-4)[Fuc(a1-3)]GlcNAc
# Method in brief: as §1
# [5] = biological target: Gal(b1-3)GlcNAc(b1-3)Gal(b1-4)[Fuc(a1-3)]GlcNAc(b1-6)[Gal(b1-3)GlcNAc(b1-3)]Gal(b1-4)Glc
# Method in brief: as §1
# [6] = biological target: Gal(b1-3)GlcNAc(b1-3)GalNAc
# Method in brief: as §1
# [7] = biological target: Gal(b1-3)GlcNAc(b1-6)Gal(b1-4)GlcNAc
# Method in brief: as §1
# [8] = biological target: Gal(b1-3)GlcNAc(b1-6)GalNAc
# Method in brief: as §1
# [9] = biological target: Gal(b1-3)GlcNAc(b1-6)[Gal(b1-3)]GalNAc
# Method in brief: as §1
# Gal(b1-3)GlcNAc6S = biological target: Gal(b1-3)GlcNAc6S
# Method in brief: as §1
# [10] = biological target: Gal(b1-3)[Fuc(a1-4)]GlcNAc
# Method in brief: as §1
# [11] = biological target: Gal(b1-3)[Fuc(a1-4)]GlcNAc(b1-2)Man
# Method in brief: as §1
# [12] = biological target: Gal(b1-3)[Fuc(a1-4)]GlcNAc(b1-2)Man(a1-3)[Gal(b1-3)[Fuc(a1-4)]GlcNAc(b1-2)Man(a1-6)]Man(b1-4)GlcNAc(b1-4)[Fuc(a1-6)]GlcNAc
# Method in brief: as §1
# [13] = biological target: Gal(b1-3)[Fuc(a1-4)]GlcNAc(b1-3)Gal(b1-3)[Fuc(a1-4)]GlcNAc
# Method in brief: as §1
# [14] = biological target: Gal(b1-3)[Fuc(a1-4)]GlcNAc(b1-3)Gal(b1-4)[Fuc(a1-3)]GlcNAc
# Method in brief: as §1
# [15] = biological target: Gal(b1-3)[Fuc(a1-4)]GlcNAc(b1-6)GalNAc
# Method in brief: as §1
# [16] = biological target: Gal(b1-3)[GlcNAc(b1-6)]GalNAc
# Method in brief: as §1
# [17] = biological target: Gal(b1-3)[Neu5Ac(a2-6)]GalNAc
# Method in brief: as §1
# [18] = biological target: Gal(b1-3)[Neu5Ac(a2-6)]GlcNAc(b1-4)Gal(b1-4)Glc
# Method in brief: as §1
# [19] = biological target: Gal(b1-3)[Neu5Ac(b2-6)]GalNAc
# Method in brief: as §1
# Gal(b1-4)Gal = biological target: Gal(b1-4)Gal
# Method in brief: as §1
# [20] = biological target: Gal(b1-4)GalNAc(a1-3)[Fuc(a1-2)]Gal(b1-4)GlcNAc
# Method in brief: as §1
# [21] = biological target: Gal(b1-4)GalNAc(b1-3)[Fuc(a1-2)]Gal(b1-4)GlcNAc
# Method in brief: as §1
# Gal(b1-4)Glc = biological target: Gal(b1-4)Glc
# Method in brief: as §1
# Gal(b1-4)Glc6S = biological target: Gal(b1-4)Glc6S
# Method in brief: as §1
# Gal(b1-4)GlcNAc = biological target: Gal(b1-4)GlcNAc
# Method in brief: as §1
# [22] = biological target: Gal(b1-4)GlcNAc(a1-6)Gal(b1-4)GlcNAc
# Method in brief: as §1
# Gal(b1-4)GlcNAc(b1-2)Man = biological target: Gal(b1-4)GlcNAc(b1-2)Man
# Method in brief: as §1
# [23] = biological target: Gal(b1-4)GlcNAc(b1-2)Man(a1-3)Man(b1-4)GlcNAc(b1-4)GlcNAc
# Method in brief: as §1
# [24] = biological target: Gal(b1-4)GlcNAc(b1-2)Man(a1-3)[Gal(b1-4)GlcNAc(b1-2)Man(a1-6)]Man(b1-4)GlcNAc(b1-4)GlcNAc
# Method in brief: as §1
# [25] = biological target: Gal(b1-4)GlcNAc(b1-2)Man(a1-3)[Gal(b1-4)GlcNAc(b1-2)Man(a1-6)]Man(b1-4)GlcNAc(b1-4)[Fuc(a1-6)]GlcNAc
# Method in brief: as §1
# [26] = biological target: Gal(b1-4)GlcNAc(b1-2)Man(a1-3)[Gal(b1-4)GlcNAc(b1-2)Man(a1-6)][Gal(b1-4)GlcNAc(b1-4)]Man(b1-4)GlcNAc(b1-4)[Fuc(a1-6)]GlcNAc
# Method in brief: as §1
# [27] = biological target: Gal(b1-4)GlcNAc(b1-2)Man(a1-3)[Gal(b1-4)GlcNAc(b1-2)Man(a1-6)][GlcNAc(b1-4)]Man(b1-4)GlcNAc(b1-4)[Fuc(a1-6)]GlcNAc
# Method in brief: as §1
# [28] = biological target: Gal(b1-4)GlcNAc(b1-2)Man(a1-3)[GlcNAc(b1-2)Man(a1-6)]Man(b1-4)GlcNAc(b1-4)GlcNAc
# Method in brief: as §1
# [29] = biological target: Gal(b1-4)GlcNAc(b1-2)Man(a1-3)[GlcNAc(b1-4)][Gal(b1-4)GlcNAc(b1-2)Man(a1-6)]Man(b1-4)GlcNAc(b1-4)GlcNAc
# Method in brief: as §1
# [30] = biological target: Gal(b1-4)GlcNAc(b1-2)Man(a1-3)[Man(a1-6)]Man(b1-4)GlcNAc(b1-4)GlcNAc
# Method in brief: as §1
# [31] = biological target: Gal(b1-4)GlcNAc(b1-2)Man(a1-6)Man(b1-4)GlcNAc(b1-4)GlcNAc
# Method in brief: as §1
# [32] = biological target: Gal(b1-4)GlcNAc(b1-2)Man(a1-6)[GlcNAc(b1-2)Man(a1-3)]Man(b1-4)GlcNAc(b1-4)GlcNAc
# Method in brief: as §1
binder,measurement,setting,value
B1,glycan array binding signal (z-score),[1],1.82
same,glycan array binding signal (z-score),[2],0.259
same,glycan array binding signal (z-score),[3],-0.313
same,glycan array binding signal (z-score),[4],-0.323
same,glycan array binding signal (z-score),[5],-0.585
same,glycan array binding signal (z-score),[6],-0.464
same,glycan array binding signal (z-score),[7],-0.202
same,glycan array binding signal (z-score),[8],-0.524
same,glycan array binding signal (z-score),[9],-0.165
same,glycan array binding signal (z-score),Gal(b1-3)GlcNAc6S,-0.022
same,glycan array binding signal (z-score),[10],-0.227
same,glycan array binding signal (z-score),[11],0.741
same,glycan array binding signal (z-score),[12],-0.112
same,glycan array binding signal (z-score),[13],-0.301
same,glycan array binding signal (z-score),[14],0.034
same,glycan array binding signal (z-score),[15],2.73
same,glycan array binding signal (z-score),[16],-0.015
same,glycan array binding signal (z-score),[17],-0.156
same,glycan array binding signal (z-score),[18],-0.518
same,glycan array binding signal (z-score),[19],-0.528
same,glycan array binding signal (z-score),Gal(b1-4)Gal,-0.083
same,glycan array binding signal (z-score),[20],-0.051
same,glycan array binding signal (z-score),[21],-0.493
same,glycan array binding signal (z-score),Gal(b1-4)Glc,-0.288
same,glycan array binding signal (z-score),Gal(b1-4)Glc6S,-0.15
same,glycan array binding signal (z-score),Gal(b1-4)GlcNAc,0.077
same,glycan array binding signal (z-score),[22],-0.231
same,glycan array binding signal (z-score),Gal(b1-4)GlcNAc(b1-2)Man,0.051
same,glycan array binding signal (z-score),[23],0.026
same,glycan array binding signal (z-score),[24],-0.361
same,glycan array binding signal (z-score),[25],0.268
same,glycan array binding signal (z-score),[26],0.272
same,glycan array binding signal (z-score),[27],-0.231
same,glycan array binding signal (z-score),[28],-0.145
same,glycan array binding signal (z-score),[29],-0.503
same,glycan array binding signal (z-score),[30],-0.107
same,glycan array binding signal (z-score),[31],-0.16
same,glycan array binding signal (z-score),[32],-0.022
